Laboratory results published in the supplement of paper PMC4604168 (melanoma cell lines).
The other results are listed elsewhere or left out. Most values come without repeats; read them as rough.

Assays:
Test in all cases: cell count relative to DMSO control; melanoma cells; higher = more viable cells
Details in all cases: library dose: low library concentration; 72 h
WM115 = test system: WM115
WM1716 = test system: WM1716
WM1745 = test system: WM1745
WM3526 = test system: WM3526
WM3619 = test system: WM3619
WM451Lu = test system: WM451Lu
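Further: cell number obtained by counting DAPI-stained nuclei in high-throughput microscope images with image analysis software, screen run in 1,536-well plates.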

SMILES: CS(=O)(=O)c1ccc(C(=O)Nc2ccc(Cl)c(-c3ccccn3)c2)c(Cl)c1 [vismodegib] + C/C(O)=C(\C#N)C(=O)Nc1cc(Br)ccc1Br [LFM-A13] (first compound 1 µM, partner dose 2 µM)
- cell count (WM115): 107%
- cell count (WM1716): 132%
- cell count (WM1745): 107%
- cell count (WM3526): 84.9%
- cell count (WM3619): 138%
- cell count (WM451Lu): 77.6%

SMILES: CCCS(=O)(=O)Nc1ccc(F)c(C(=O)c2c[nH]c3ncc(Cl)cc23)c1F + C/C(O)=C(\C#N)C(=O)Nc1cc(Br)ccc1Br [LFM-A13] (first compound 0.08 µM, partner dose 2 µM)
- cell count (WM115): 108%
- cell count (WM1716): 104%
- cell count (WM1745): 98.3%
- cell count (WM3526): 57.2%
- cell count (WM3619): 94.2%
- cell count (WM451Lu): 99.8%

SMILES: CC(=O)c1c(C)c2cnc(Nc3ccc(N4CCNCC4)cn3)nc2n(C2CCCC2)c1=O [palbociclib] + C/C(O)=C(\C#N)C(=O)Nc1cc(Br)ccc1Br [LFM-A13] (first compound 0.04 µM, partner dose 2 µM)
- cell count (WM115): 69.2%
- cell count (WM1716): 53.1%
- cell count (WM1745): 86.5%
- cell count (WM3526): 62.5%
- cell count (WM3619): 70.2%
- cell count (WM451Lu): 65.9%

SMILES: Cc1cc(SCc2sc(-c3ccc(C(F)(F)F)c(F)c3)nc2C)ccc1OCC(=O)O + O=C1NC(=O)/C(=C/c2ccc(-c3ccc(F)cc3O)o2)S1 [AS252424] (first compound 2 µM, partner dose 1 µM)
- cell count (WM115): 83.9%
- cell count (WM1716): 88.8%
- cell count (WM1745): 86.1%
- cell count (WM3526): 91.5%
- cell count (WM3619): 102%
- cell count (WM451Lu): 115%

SMILES: C[C@@H](N)c1ccc(C(=O)Nc2ccnc3[nH]ccc23)cc1 + Cc1cc(SCc2sc(-c3ccc(C(F)(F)F)c(F)c3)nc2C)ccc1OCC(=O)O [GW0742] (first compound 0.4 µM, partner dose 2 µM)
- cell count (WM115): 102%
- cell count (WM1716): 58.3%
- cell count (WM1745): 91.7%
- cell count (WM3526): 102%
- cell count (WM3619): 98.1%
- cell count (WM451Lu): 91.1%

SMILES: CNC(=O)c1cc(Oc2ccc(NC(=O)Nc3ccc(Cl)c(C(F)(F)F)c3)cc2)ccn1 [sorafenib] + C[As](C)SC[C@H](NC(=O)CC[C@H](N)C(=O)O)C(=O)NCC(=O)O [Darinaparsin] (first compound 0.4 µM, partner dose 0.4 µM)
- cell count (WM115): 95.8%
- cell count (WM1716): 90.4%
- cell count (WM1745): 95.4%
- cell count (WM3526): 101%
- cell count (WM3619): 85.3%
- cell count (WM451Lu): 124%

SMILES: Nc1cccc2c1CN(C1CCC(=O)NC1=O)C2=O (stereo not drawn) [lenalidomide] + Cc1cc(SCc2sc(-c3ccc(C(F)(F)F)c(F)c3)nc2C)ccc1OCC(=O)O [GW0742] (first compound 1 µM, partner dose 2 µM)
- cell count (WM115): 102%
- cell count (WM1716): 108%
- cell count (WM1745): 104%
- cell count (WM3526): 91.3%
- cell count (WM3619): 115%
- cell count (WM451Lu): 132%

SMILES: COc1ccc(C2=N[C@@H](c3ccc(Cl)cc3)[C@@H](c3ccc(Cl)cc3)N2C(=O)N2CCNC(=O)C2)c(OC(C)C)c1 [Nutlin-3] + C[As](C)SC[C@H](NC(=O)CC[C@H](N)C(=O)O)C(=O)NCC(=O)O [Darinaparsin] (first compound 0.1 µM, partner dose 0.4 µM)
- cell count (WM115): 86.5%
- cell count (WM1716): 96.5%
- cell count (WM1745): 92.7%
- cell count (WM3526): 114%
- cell count (WM3619): 93.7%
- cell count (WM451Lu): 108%

SMILES: Cc1cc(SCc2sc(-c3ccc(C(F)(F)F)c(F)c3)nc2C)ccc1OCC(=O)O + c1cc(-c2cnn3cc(-c4ccc(OCCN5CCCCC5)cc4)cnc23)ccn1 [Dorsomorphin] (first compound 2 µM, partner dose 0.4 µM)
- cell count (WM115): 94.6%
- cell count (WM1716): 103%
- cell count (WM1745): 78.7%
- cell count (WM3526): 83.1%
- cell count (WM3619): 78.6%
- cell count (WM451Lu): 114%

SMILES: C=C(c1ccc(C(=O)O)cc1)c1cc2c(cc1C)C(C)(C)CCC2(C)C [Bexarotene] + Cc1cc(SCc2sc(-c3ccc(C(F)(F)F)c(F)c3)nc2C)ccc1OCC(=O)O [GW0742] (first compound 2 µM, partner dose 2 µM)
- cell count (WM115): 101%
- cell count (WM1716): 86.7%
- cell count (WM1745): 94.9%
- cell count (WM3526): 86.1%
- cell count (WM3619): 107%
- cell count (WM451Lu): 82.1%

SMILES: C=CCNC1=C2C[C@@H](C)C[C@H](OC)[C@H](O)[C@@H](C)/C=C(\C)[C@H](OC(N)=O)[C@@H](OC)/C=C\C=C(/C)C(=O)NC(=CC1=O)C2=O [Tanespimycin] + Cc1cc(SCc2sc(-c3ccc(C(F)(F)F)c(F)c3)nc2C)ccc1OCC(=O)O [GW0742] (first compound 0.002 µM, partner dose 2 µM)
- cell count (WM115): 93.4%
- cell count (WM1716): 103%
- cell count (WM1745): 90.8%
- cell count (WM3526): 103%
- cell count (WM3619): 92.3%
- cell count (WM451Lu): 180%

SMILES: C[C@@H](N)c1ccc(C(=O)Nc2ccnc3[nH]ccc23)cc1 + C[As](C)SC[C@H](NC(=O)CC[C@H](N)C(=O)O)C(=O)NCC(=O)O [Darinaparsin] (first compound 0.4 µM, partner dose 0.4 µM)
- cell count (WM115): 100%
- cell count (WM1716): 63.9%
- cell count (WM1745): 80%
- cell count (WM3526): 116%
- cell count (WM3619): 115%
- cell count (WM451Lu): 61%

SMILES: CC1(C)NC(=O)N(c2ccc([N+](=O)[O-])c(C(F)(F)F)c2)C1=O [nilutamide] + O=C(Oc1ccc([N+](=O)[O-])cc1)N1CCC(C(O)(c2ccc3c(c2)OCO3)c2ccc3c(c2)OCO3)CC1 [JZL184] (first compound 1 µM, partner dose 1 µM)
- cell count (WM115): 110%
- cell count (WM1716): 109%
- cell count (WM1745): 97.2%
- cell count (WM3526): 98%
- cell count (WM3619): 130%
- cell count (WM451Lu): 113%
